PubChem BioAssay AID894 (National Center for Advancing Translational Sciences (NCATS), 2007)
The whole screen tested about 150,000 compounds, of which about 6,500 (4.3%) were called active. The inconclusive results got no clear call from the source; some entries with a clear call stand among them for comparison. The call rests on the fitted dose curve; in most records, active means well fitted inhibition curve with a large enough effect (not every such curve was filed as active); inconclusive means small, poorly fitted or top-dose-only effect, or another doubt; inactive means no such curve, though single readings can be large or run the other way. Potencies of inconclusive entries are left out as doubtful fits.

target: 15-hydroxyprostaglandin dehydrogenase [NAD(+)] (Homo sapiens) (UniProt P15428); experiment: qHTS Assay for Inhibitors of HPGD (15-Hydroxyprostaglandin Dehydrogenase); conditions: purified HPGD, NADH fluorescence kinetic, PGE2 substrate; activity change, negative = inhibition: stronger effect = lower value
Sequence of UniProt P15428 (P15428 whole entry, looked up): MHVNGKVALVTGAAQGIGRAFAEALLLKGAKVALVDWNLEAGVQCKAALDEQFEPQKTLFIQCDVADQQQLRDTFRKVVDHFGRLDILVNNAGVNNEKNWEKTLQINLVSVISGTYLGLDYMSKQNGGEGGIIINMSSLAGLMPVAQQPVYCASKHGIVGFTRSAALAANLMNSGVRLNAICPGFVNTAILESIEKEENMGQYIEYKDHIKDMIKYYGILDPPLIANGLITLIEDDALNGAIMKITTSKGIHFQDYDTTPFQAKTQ
Summary of the method: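 20 nM HPGD preincubated 15 min at room temperature with compound in 50 mM Tris-HCl pH 8, 0.01% Tween 20. Started with 1 mM NAD+ and 30 uM prostaglandin E2; NADH fluorescence (360/450 nm) read 5 times over 30-s intervals, last minus first.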
On the % scale 0 is the no-effect control and ±100 the full control effect; potency means the concentration at half of the fitted maximal effect; tags describe the fitted curve by direction and shape.

| SMILES | activity change, negative = inhibition | Potency |
| --- | --- | --- |
| COC(=O)N[C@@H](c1cccc(C)c1)C(C(C)=O)C(=O)OC (some centres not stated) | inactive: -10.9% |  |
| O=C(Nc1ccc2oc(-c3ccc4ccccc4c3)nc2c1)c1ccc2c(c1)OCCO2 |  | inconclusive [inhibitor, partial curve] |
| Cc1cc(C)cc(OC(=O)N2CCOCC2)c1 | inactive: -11% |  |
| CC(/C=C/c1ccccc1)=N\NC(=O)Cn1nc(C)cc1C | inactive: -14.3% |  |
| O=c1c(O)cc(C2Oc3cc(O)cc(O)c3CC2O)cc2c(C3Oc4cc(O)cc(O)c4CC3O)cc(O)c(O)c12 (configuration not stated) |  | active: 12.6 µM |
| Fc1ccc(-n2c(-c3cccs3)nc3nc4ccccc4nc32)cc1 |  | inconclusive [inhibitor, full curve] |
| N#Cc1nc(-c2ccco2)oc1NCCCn1ccnc1 |  | inconclusive [inhibitor, partial curve] |
| O=C(c1cncc(Br)c1)N1CCc2ccccc2C1 |  | active: 10 µM |
| Cc1ccc(NC(=O)Cn2nnc(-c3ccccc3NC(=O)c3cccs3)n2)cc1 |  | inconclusive [inhibitor, partial curve] |
| O=C(/C=C/c1ccc2c(c1)OCO2)Nc1nc(-c2ccccc2)cs1 |  | inconclusive [inhibitor, partial curve, poor fit] |
| CC(C)Nc1nc(Oc2cccc(Cl)c2Cl)cc(C(F)(F)F)n1 |  | inconclusive [inhibitor, single point] |
| O=C(C1=C[C@@H]2[C@H]3C(=O)N(c4ccc(Cl)cc4)C(=O)[C@H]3[C@@H](C(=O)c3ccc(Cl)cc3)N2C=C1)c1ccccc1 |  | active: 31.6 µM |
| CCN1CC=C2C(C#N)=C(N)C(C#N)(C#N)C(c3cc(Cl)ccc3Cl)C2C1 (configuration not stated) |  | inconclusive [inhibitor, single point] |
| N#Cc1c(NC(=O)CSc2nc(-c3ccco3)cc(C(F)(F)F)n2)sc2c1CCCC2 |  | inconclusive [inhibitor, single point] |
| COC(=O)CSc1ncccc1-c1nc2ccccc2[nH]1 |  | inconclusive [inhibitor, single point] |
| Cc1sc2nc(CN3CCCCC3)nc(Cl)c2c1C |  | inconclusive [inhibitor, partial curve] |
| CCOc1ccc(S(=O)(=O)Nc2nc3cc(OC)ccc3s2)cc1 |  | inconclusive [inhibitor, partial curve] |
| CCC(=O)N1CC2(CC(c3cccc([N+](=O)[O-])c3)=NO2)C[C@H]1C(=O)NCC(N)=O (some centres not stated) | inactive: -13.6% |  |
| C[C@H](Cc1ccc(O)c(O)c1)[C@@H](C)Cc1ccc(O)c(O)c1 |  | active: 3.16 µM |
| COCc1cc(C)nc(Nc2ccc(C)cc2C)c1C#N | inactive: -16.4% |  |
| COc1ccc2c(=O)cc(-c3ccc(O)cc3)oc2c1 |  | inconclusive [inhibitor, full curve] |
| CC(C)Cc1nc2oc3c(N4CCN(C)CC4)ncnc3c2c2c1CCCC2 | inactive: -0.63% |  |
| Cc1nc(NC2CCCCC2)c2nc(-c3ccccc3)n(CCN3CCCCC3)c2n1 |  | inconclusive [inhibitor, partial curve] |
| COc1ccc2[nH]c(=O)c(CN(C)C(=O)COc3ccccc3)cc2c1 |  | inconclusive [inhibitor, partial curve] |

| SMILES | activity change, negative = inhibition | Potency |
| --- | --- | --- |
| COc1cc(-c2ccc(NC(=O)c3ccc(C)cc3)c(OC)c2)ccc1NC(=O)c1ccc(C)cc1 |  | inconclusive [inhibitor, partial curve] |
| CCOC(=O)c1c(C)nc2sc3c(=O)n(-c4ccc(C(C)=O)cc4)cnc3c2c1-c1ccc(OC)cc1 | inactive: -7.58% |  |
| O=C(OCCOc1ccccc1Cl)c1ccc(-n2cnnn2)cc1 |  | inconclusive [inhibitor, single point] |
| Cc1noc(C)c1COc1ccc(C(=O)NCC2CCCO2)cc1 (configuration not stated) |  | inconclusive [inhibitor, partial curve] |
| N#Cc1c(-c2ccccc2)nc(-c2ccccc2)[nH]c1=O |  | active: 2 µM |
| Cc1cc(C)n(-c2ccc(C(=O)Nc3ccc(N4CCOCC4)cc3)cc2)n1 |  | inconclusive [inhibitor, partial curve] |
| O=C(CCCn1c(=O)[nH]c2ccsc2c1=O)N1CCCCC1 |  | active: 14.1 µM |
| COc1ccc(CC2(C)OC(c3ccc(Cl)cc3)=NN2C(C)=O)cc1 (configuration not stated) |  | inconclusive [inhibitor, partial curve] |
| CCCCC(=O)Nc1ccc(NC(=S)NC(=O)CC)cc1OC |  | inconclusive [inhibitor, partial curve] |
| O=C(c1ccc(=O)oc1)N1CCN(C(c2ccccc2)c2ccccc2)CC1 |  | inconclusive [inhibitor, partial curve] |
| Cc1ccc(/C=C/C(=O)N2CCCC(C)C2)cc1 (configuration not stated) |  | active: 1.58 µM |
| O=C1CC(c2ccccc2)CC(O)=C1C=NCCN1CCNCC1 (configuration not stated) | inactive: -10.3% |  |
| O=C(CSc1nnc(SCc2cccc3ccccc23)s1)N/N=C/c1c[nH]c2ccccc12 | inactive: -9.41% |  |
| Cc1ccc2cc(C(c3nnnn3CC3CCCO3)N3CCc4ccccc4C3)c(=O)[nH]c2c1 (configuration not stated) |  | inconclusive [inhibitor, single point] |
| O=S(=O)(Nc1ccc(N=Nc2ccccc2)cc1)c1ccccc1 |  | inconclusive [inhibitor, single point] |
| Fc1ccccc1CSc1ncnc2sc3c(c12)CCCC3 | inactive: -16.6% |  |
| CC(C)c1ccc(-c2cc(C(=O)N3N=C(C(F)F)CC3(O)C(F)F)c3ccccc3n2)cc1 (configuration not stated) |  | inconclusive [inhibitor, single point] |
| CCC(=O)Nc1c(S(=O)(=O)c2ccccc2)c2nc3ccccc3nc2n1Cc1ccccc1 |  | inconclusive [inhibitor, partial curve] |
| Cn1c(SCCCC(=O)c2ccc(Br)cc2)nnc1-c1ccncc1 |  | active: 17.8 µM |
| N#Cc1c(NC2CCCCC2)nc(-c2ccco2)c2c1CCCC2 |  | inconclusive [inhibitor, partial curve] |
| O=C(Nc1cc(Cl)ccc1Cl)C1CC(=O)N(c2ccc(Br)cc2)C1 (configuration not stated) | inactive: -12.3% |  |
| C[N+]1(C)CC2([N+](=O)[O-])CC=C(Oc3ccccc3)C([N+](=O)[O-])(C2)C1 (configuration not stated) | inactive: 2.16% |  |
| CCOC(=O)CSc1nnnn1-c1cccc2ccccc12 |  | active: 25.1 µM |
| CC(C)CC(=O)Nc1nc(=S)ss1 |  | active: 14.1 µM |

| SMILES | activity change, negative = inhibition | Potency |
| --- | --- | --- |
| CC1(CC(=O)N/N=C/c2ccc(-c3ccc(Cl)cc3)o2)OCCO1 |  | inconclusive [inhibitor, partial curve] |
| COCCCNC(=O)CCc1nc(-c2ccccc2)no1 |  | inconclusive [inhibitor, partial curve] |
| Cn1c(SCC(=O)c2ccccc2)nnc1C1CC1 | inactive: -19.9% |  |
| c1ccc(N2CCN(c3cnc4ccccc4n3)CC2)cc1 |  | active: 22.4 µM |
| CC(C)Cn1c(-c2csc3ccccc23)n[nH]c1=S |  | inconclusive [inhibitor, partial curve] |
| Cc1ccc(-c2nnc(SCC(C)C)n2C)cc1 |  | inconclusive [inhibitor, partial curve] |
| Cc1cc(NCCCO)n2c(nc3ccccc32)c1C#N |  | inconclusive [inhibitor, partial curve] |
| Cc1ccc(N2C(=O)[C@@H]3[C@H](C2=O)[C@H]2C=C(C(=O)c4ccccc4)C=CN2[C@@H]3C(=O)c2ccc(Cl)cc2)cc1 |  | active: 39.8 µM |
| Cc1nc(Nc2nc(CSc3nc4ccccc4[nH]3)cc(=O)[nH]2)nc2ccccc12 | inactive: -14.5% |  |
| Cc1cc(Cl)ccc1NC(=S)N1CCN(C(=O)C2CCCO2)CC1 (configuration not stated) | inactive: -9.38% |  |
| Cc1ccc(NC(=O)C2(c3cccs3)CCOCC2)cc1C | inactive: -6.48% |  |
| O=C(Nc1nc(-c2cc3ccccc3o2)cs1)c1ccc(S(=O)(=O)N2CCCC2)cc1 |  | inconclusive [inhibitor, full curve] |
| COc1ccccc1OCCCCCc1c(C)n[nH]c1C |  | inconclusive [inhibitor, partial curve] |
| CCCn1c(/C=C/c2ccco2)nc2ccccc21 |  | inconclusive [inhibitor, partial curve] |
| O=C1NN(c2ccccc2)C(=O)/C1=C\c1ccccc1OCC(=O)N1CCOCC1 |  | active: 15.8 µM |
| O=C(Nc1cnn(Cc2ccc(Cl)c(Cl)c2)c1)c1nc2ncccn2n1 |  | active: 20 µM |
| O=C(CSc1ncn(-c2ccccc2)n1)N1CCN(c2ccccc2)CC1 |  | active: 28.2 µM |
| c1ccc(OCc2nn3c(-c4cccnc4)nnc3s2)cc1 |  | inconclusive [inhibitor, partial curve] |
| CCCCN(Cc1cc2cc(OC)ccc2[nH]c1=O)C(=O)c1ccccn1 |  | inconclusive [inhibitor, partial curve] |
| CC(C)N(CCCNC(=O)CC1Oc2ccccc2NC1=O)Cc1ccccc1 (configuration not stated) | inactive: -2.89% |  |
| C=CCNC(=O)N1CCc2nc(COc3ccccc3)c3c(c2C1)CO[C@@H](C)C3 | inactive: 3.01% |  |
| COc1cc(/C=C(\C#N)c2nc3ccccc3[nH]2)ccc1OC(=O)c1ccco1 |  | inconclusive [inhibitor, partial curve] |
| Cc1ccc(C2NC(=O)NC3=C2CCc2ccccc23)cc1 (configuration not stated) |  | inconclusive [inhibitor, partial curve] |
| Cc1c(O)c(Br)c(C)c(O)c1Br (tested in a mixture with another compound) |  | active: 0.891 µM |
